Among the data in the supplement of paper PMC10681739 are RUNX1 binding intensity values, retold here.

± gives the standard deviation of the averaged measurements. In all, about 4,000 sequences were measured (“arbitrary fluorescence units”: median about 830, highest 2% from about 6,500 on). This part holds few or none of the hits.
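Note: Full-length recombinant human RUNX1 bound to double-stranded DNA microarray spots, detected with an Alexa488-labelled secondary antibody after the anti-RUNX1 primary, read as scanned spot fluorescence.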

Sequence of UniProt Q01196 (Q01196 whole entry): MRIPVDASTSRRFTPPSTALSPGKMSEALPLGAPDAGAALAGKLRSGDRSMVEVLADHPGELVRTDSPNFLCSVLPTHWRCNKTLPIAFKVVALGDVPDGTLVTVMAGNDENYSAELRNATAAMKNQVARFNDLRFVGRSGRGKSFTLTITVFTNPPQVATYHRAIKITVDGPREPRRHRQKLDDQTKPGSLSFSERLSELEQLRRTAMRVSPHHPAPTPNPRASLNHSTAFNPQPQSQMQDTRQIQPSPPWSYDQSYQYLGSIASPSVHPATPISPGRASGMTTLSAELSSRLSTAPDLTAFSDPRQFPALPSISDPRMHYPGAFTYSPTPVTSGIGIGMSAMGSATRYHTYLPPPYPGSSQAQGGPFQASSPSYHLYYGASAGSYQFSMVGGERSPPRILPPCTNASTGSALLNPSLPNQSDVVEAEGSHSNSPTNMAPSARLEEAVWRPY

This experiment concerns the target RUNX1 (UniProt Q01196). As to the kind of experiment: RUNX1 binding intensity (PBM fluorescence), RUNX1 alone (arbitrary fluorescence units); higher = stronger binding. The note with it: RUNX1 concentration 2 nM; ETS1 concentration 0 nM. Here is the method:
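gcPBM on 36-bp genomic-derived probes (partner site mutated) containing one RUNX1 site and no ETS1 site. Recombinant human RUNX1 (2 nM) was incubated alone or with ETS1 (25 nM) and detected by anti-RUNX1 antibody fluorescence. Values are medians over 4 replicate spots (not normalised). The probes sit in constant array flanks that are not printed.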
Consider GCGCACCCGCTGCGGCCTCCACAGGCAGTGCCCGGC, for which the RUNX1 binding intensity is 745.

Consider GTTTTGTTATCGGCCCGCACCTAGAGGCCGCAAGGC, for which the RUNX1 binding intensity worked out at 872.

As for CCCATTGCCTGCTCTCCAGAGTTAACCACTGAAGTC, the RUNX1 binding intensity worked out at 1220.

In the case of AAAGAACTGCCTGAGGTGCTTGAGGTTAGGCTATGG, the RUNX1 binding intensity was determined as 700.

Turning to AGGGCGCCGCCTCCGGGAGCCCGCAAGCGGCCTCCG, the RUNX1 binding intensity was 681.

On to ATCTTAAGTGATTCCTGACACCACAAATCCCCAAAC, for which the RUNX1 binding intensity was 893.

On to GCCTGCCTGCGGGCGAGTGGAGTCAGGCTGAGTGTC, for which the RUNX1 binding intensity came to 677.

On to CAGGTCCCCACACAAGACTGAGATCTCCGCTCTGAT, for which the RUNX1 binding intensity is 759.

The sequence TGCAGCTTTCTGTCTGAGGCTTTGTGGTCCTTTCAT registered an RUNX1 binding intensity of 958.

The sequence CTGCGGTGGGCTCCGCCCAGTTCGAACTGCCTGTAG returned an RUNX1 binding intensity of 699.

CTACAAACGGCTTCGTCCTGCCTAACCACAACCTCA registered an RUNX1 binding intensity of 2130.

For the sequence GTCCTCTGCGGTGGCGCCAGCCTCCTTTCAATTCCA, the RUNX1 binding intensity is 2550.

Take TGCCGCGGTTCACATGCTGGTCACACCACTTGCTGA: the RUNX1 binding intensity stood at 749.

As for AGTGGCTACCACTGCCTTCTCTTACCACAGTTCCTT, the RUNX1 binding intensity is 1300.

In turn, GCTGTTTATCTCCGTGCCTGCGGCTGGAGCTTCTTA gave an RUNX1 binding intensity of 817.

In turn, GTCTTGCTGCCTGAGAATCTTAACCACCAGCTTGCC gave an RUNX1 binding intensity of 1150.

With CCTAAGTAACCACATTCTCGCTTGCTCCTTCCACAC, the RUNX1 binding intensity amounted to 3680.

On to AGGCGCGCATGGTGTCGCAAAAACCCGCAGCGCTAC, for which the RUNX1 binding intensity worked out at 740.

The sequence CTGCCGTAAGCTGCCCCTCCACCATTTTGTGGCCCG came in with an RUNX1 binding intensity of 851.

With TCCTAAAGCAGGCAATAGTGAGGCTACCGCAGTGTC, the RUNX1 binding intensity was found to be 794.

The sequence CCATCTCCGCGCACGTCTGCAGATGCGGTAGTCGAT yielded an RUNX1 binding intensity of 846.

Turning to GGCTTACGGCGGGGTACCCTCCTCTGTGGGCGGGGC, the RUNX1 binding intensity turned out to be 715.

GCCCTCGGAGCCACAACAACCTCCACTTTCGCCTCC came in with an RUNX1 binding intensity of 1360.

Turning to TACCTAGACCCTTGCCGCCCTTACCGCGGCCAGACA, the RUNX1 binding intensity came to 901.

The sequence TGATCAGGCAGGAGAAGCGCAGAGGTGGACCCGCAA came in with an RUNX1 binding intensity of 751.

With CCCTCCTGCGGTATTGGAGACCTGAAGCACATAGTC, the RUNX1 binding intensity turned out to be 2320.

CAACCCGTAAGCACTAACGGAGAAACCGCAACTCGG showed an RUNX1 binding intensity of 4300.

In turn, GTTAACCACCCTCTCTATGCTTCAGATTCCTCATGT returned an RUNX1 binding intensity of 1600 ± 110.

Sequence TGGCCATGGACCGCGAAGGCTTGCTCTACTGCCGCT had an RUNX1 binding intensity of 683.

With TTTAACCTGCGGCCTCCTTGCAGTCCTCCCTTGCGC, the RUNX1 binding intensity is 836.

Sequence TGGCAGCCAGATCCTGCCTGTGGCTAGGTCAACCCA showed an RUNX1 binding intensity of 665.

Turning to CCACCCAGAAAACCACATTTAACTCCCTCCTCTACT, the RUNX1 binding intensity worked out at 3750.

GGGCTCCAGTTGCGCTGTCTGCGGGTCTCGCGCGCC returned an RUNX1 binding intensity of 655.

Take GCTGTTTGCTGCTGATAAAAACACCCCACAACTTCA: the RUNX1 binding intensity was determined as 814.

In turn, ACACTGGCCTGAAGGGGCGGGACCGCGAGTTAAGAG came in with an RUNX1 binding intensity of 651.
